Source: PubChem BioAssay AID1745853 (National Center for Advancing Translational Sciences (NCATS), 2022)
This is one part of the list. Further columns of the screen follow, without active or inactive calls.

Assays:
Assay in all cases: Primary Screen for Target Class Profiling of Small Molecule Inhibitors of Methyltransferases
[1] = target: Glycine N-methyltransferase (Homo sapiens) (UniProt Q14749); details: purified enzyme, MTase-Glo SAH luminescence; measured here: GNMT inhibition; at 40 µM; stronger effect = lower value
Outline: (§1)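 Each enzyme was reacted with SAM and its substrate, with compounds tested once at 40 uM; SAH formed was read by MTase-Glo luminescence.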

[2] = target: Guanidinoacetate N-methyltransferase (Homo sapiens) (UniProt Q14353); details: purified enzyme, MTase-Glo SAH luminescence; measured here: GAMT inhibition; at 40 µM; stronger effect = lower value
Outline: as §1

[3] = target: Histamine N-methyltransferase (Homo sapiens) (UniProt P50135); details: purified enzyme, MTase-Glo SAH luminescence; measured here: HNMT inhibition; at 40 µM; stronger effect = lower value
Outline: as §1

[4] = target: Nicotinamide N-methyltransferase (Homo sapiens) (UniProt P40261); details: purified enzyme, MTase-Glo SAH luminescence; measured here: NNMT inhibition; at 40 µM; stronger effect = lower value
Outline: as §1

[5] = target: Phenylethanolamine N-methyltransferase (Homo sapiens) (UniProt P11086); details: purified enzyme, MTase-Glo SAH luminescence; measured here: PNMT inhibition; at 40 µM; stronger effect = lower value
Outline: as §1
% is scaled to controls: 0 for no effect and ±100 for the full control effect.

SMILES | activity change, negative = inhibition [1] | activity change, negative = inhibition [2] | activity change, negative = inhibition [3] | activity change, negative = inhibition [4] | activity change, negative = inhibition [5]
O=Nc1c(-c2c(O)[nH]c3ccccc23)[nH]c2ccccc12 | -39% | -21.6% | -22.1% | -33.1% | -25.5%
COc1ccc2[nH]cc(CCNC(C)=O)c2c1 | -8.64% | 2.75% | -1.4% | -2.28% | 6.81%
Cc1ccc2c(c1)c(-n1cccc1)c1n2CC(C)(C(=O)NC2CCCC2)N(Cc2cccs2)C1=O (stereo not drawn) | -18.2% | 1.91% | -10.2% | -25% | -6.35%
CN1C(=O)c2cc(C(=O)NCc3ccccc3)nn2CC1(C)C(=O)NC1CCCC1 (stereo not drawn) | 8.59% | 1.24% | 8.31% | 12.9% | 6.89%
CCCc1cc(N2CCC(NCc3c(F)cccc3Cl)CC2)nc(C)n1 | -3.1% | -1.41% | -5.51% | -3.66% | 2.73%
COC[C@H]1CCCN1C(=O)C[C@@H]1O[C@H](CNS(C)(=O)=O)[C@@H](O)[C@H]1O | -1.64% | 2.25% | -0.337% | 1.04% | -0.307%
Cc1cc(C(=O)N2CCc3ncnc(N4CCOCC4)c3CC2)n(C)n1 | -1.52% | -2.98% | -1.66% | -1.88% | -0.129%
CC(C)Cn1c(=O)c2ccc(Cl)cc2n2c(SCC(=O)Nc3ccc(F)cc3)nnc12 | -6.73% | 4.37% | 1.34% | -12.1% | -2.27%
CCOc1ccc(N2C(=O)c3nc4ccccc4n3CC2(C)C(=O)NCc2ccccc2)cc1 (stereo not drawn) | 2.11% | 0.613% | 6.82% | 10.9% | -1.29%
Cc1ccc(NC(=O)c2cc3n(n2)CC(C)(C(=O)NC2CCCCC2)N(C)C3=O)cc1C (stereo not drawn) | 5.07% | 0% | 3.06% | 6.13% | 1.68%
CN(C)CCN(Cc1ccccc1)C(=O)c1cc(-c2ccc(F)cc2)n2nc(C(C)(C)C)cc2n1 | -2.65% | -3.88% | -26.8% | -25% | -1.02%
CN1C(=O)c2cc(C(=O)NCc3ccc(Cl)cc3)nn2CC1(C)C(=O)NCc1ccc(F)cc1 (stereo not drawn) | 0.748% | 4.78% | 2.81% | 4.18% | 0.41%
COc1ccc(F)cc1-c1cccc(C(=O)NCC(=O)N2CCN(C)CC2)c1 | -2.72% | -4.3% | -0.637% | -12.9% | 5.95%
Cc1ccccc1NC(=O)Cn1nc2n(C)c(=O)c3ccc(C(=O)NC4CCCC4)cc3n2c1=O | -1.01% | 4.29% | -0.718% | -2.31% | -0.852%
CCOc1ccc(CNC(=O)c2cc3n(n2)CC(C)(C(=O)NC2CCCCCC2)N(C)C3=O)cc1 (stereo not drawn) | -1.3% | 2.78% | -4.4% | -2.86% | -1.55%
COc1ccc(CN2C(=O)c3cc4ccc(OC)cc4n3CC2(C)C(=O)NC2CCCC2)cc1 (stereo not drawn) | -7.65% | 1.19% | -6.91% | -14.5% | -5.08%
c1coc(-c2ccnc3nc(C4CCC4)nn23)c1 | -24.8% | -7.53% | -6.56% | -18.1% | -12.4%
COCCCNc1nc2c(S(=O)(=O)c3ccccc3)nnn2c2ccccc12 | 4.58% | 0% | 9.94% | 7.7% | 3.45%
Cc1cc(C)n(-c2cccc(CN(C)C(=O)c3cn(Cc4ccc(Cl)cc4)nn3)c2)n1 | -21.5% | -7.47% | -6.2% | -14.9% | -0.925%
CCCN(CCC)CCCN1C(=O)c2cc3occc3n2CC1(C)C(=O)NC1CCCCCC1 (stereo not drawn) | 3.15% | 0% | 2.06% | 10.4% | 2.09%

SMILES | activity change, negative = inhibition [1] | activity change, negative = inhibition [2] | activity change, negative = inhibition [3] | activity change, negative = inhibition [4] | activity change, negative = inhibition [5]
Cc1noc(C)c1-c1ccc2c(n1)CN(Cc1nc3ccccc3s1)C(=O)CO2 | -14.2% | -8.97% | -26.3% | -28.6% | -9.5%
C/C=C/C=C/C=C/C(=O)O[C@@H]1C=C(CO)C(O)(C(=O)O)[C@@]2(C)CCCC(C)(C)[C@H]12 (stereo partly drawn) | -1.05% | -22.6% | -1.26% | -35.6% | -2.38%
O=S(=O)(N[C@H]1CCCC[C@@H]1N1CCOCC1)c1ccc(Cl)cc1 | 0.536% | -2.81% | 4.8% | -12% | -2.69%
CC(C)CCNC(=O)C1(C)Cn2c(cc3ccccc32)C(=O)N1Cc1ccc(F)cc1 (stereo not drawn) | -2.16% | 4.32% | -0.236% | -7.31% | -2.48%
CCN(CC)CCCN1C(=O)c2cc3sccc3n2CC1(C)C(=O)NC1CCCCCC1 (stereo not drawn) | -2.62% | 3.82% | -7.72% | -0.077% | -6.27%
Cc1ccc(-c2n[nH]n3c2nc(=O)c2ccc(C(=O)N4CCN(c5cc(C)ccc5C)CC4)cc23)cc1 | -23.5% | -1.68% | -8.06% | -21.8% | -5.25%
CNC(=O)[C@@H]1CN(C(=O)CCc2cccc(OC)c2)C[C@H]1c1nc(C)no1 | -0.326% | -1.15% | 0.041% | -2.2% | 0.687%
Cc1noc2ncnc(N3CCC4(CC3)CC(c3ccccc3)CN(C)C4)c12 (stereo not drawn) | -9.15% | -7.04% | -38.4% | -15.8% | -3.74%
CC1(c2cccnc2)N(CC2CC2)C(=O)OC12CCN(C(=O)c1cccc(O)c1)CC2 (stereo not drawn) | -0.985% | -1.82% | 0.551% | -7.41% | -13.4%
O=C(CN1C(=O)C2(CCNCC2)Nc2ccccc21)NC1CCCCCC1 | -0.738% | -1.03% | -1.4% | -4.38% | -3.95%
Cc1ccc(C(=O)Cn2nc3n(C)c(=O)c4ccc(C(=O)NC5CCCCC5)cc4n3c2=O)cc1 | 3.15% | 0% | 9.49% | 1.07% | 2.15%
CN(CCc1ccccn1)C(=O)c1ccc2c(c1)[nH]c(=O)n2C1CCC(O)CC1 (stereo not drawn) | -6.33% | -10.9% | -2.91% | -16.4% | -12.4%
CCC(C)C(=O)O[C@H]1[C@@H](O[C@H]2O[C@H](CO)[C@@H](O)[C@H](O)[C@H]2O)O[C@H](CO)[C@@H](O)[C@@H]1O (stereo partly drawn) | 0% | 0.144% | 9.34% | -15.3% | -11.4%
CN(C)Cc1nnc(C2CC(NC(=O)c3nc4ccccc4[nH]3)C2)n1C (stereo not drawn) | -5.67% | -11.7% | -4.67% | -7.89% | -7.19%
BrC1C(Br)C(Br)C(Br)C(Br)C1Br (stereo not drawn) |  | -11.1% |  | -5.63% | 7.51%
O=C(N1CCC(NS(=O)(=O)c2cccs2)CC1)N1CC2CC(C1)[C@H]1CCCC(=O)N1C2 (stereo partly drawn) | 6.25% | 3.51% | 3.48% | 3.98% | -7.48%
O=C(N/N=C/c1ccc(O)c(O)c1)c1cc2ccccc2cc1O | -14% | -14.3% | 8.13% | -19.4% | -2.99%
CCCn1c(=O)c2ccccc2n2c(SCC(=O)NCc3cccc(OC)c3)nnc12 | -3.13% | -0.232% | 0.741% | -11.9% | -2.88%
O=C(CCC1CCCN(S(=O)(=O)c2ccc(F)cc2)C1)NCc1ccco1 (stereo not drawn) | 11.4% | 0% | 10.7% | 8.99% | 6.39%
